Measurements: article PMC3234886 (Biochemistry, 2011)

Target: T1, wild-type Rna14/Rna15 complex (2:2 heterotetramer) (Saccharomyces cerevisiae, UniProt P25298 1-677; P25299 1-296)
T1 sequence (looked up) 1: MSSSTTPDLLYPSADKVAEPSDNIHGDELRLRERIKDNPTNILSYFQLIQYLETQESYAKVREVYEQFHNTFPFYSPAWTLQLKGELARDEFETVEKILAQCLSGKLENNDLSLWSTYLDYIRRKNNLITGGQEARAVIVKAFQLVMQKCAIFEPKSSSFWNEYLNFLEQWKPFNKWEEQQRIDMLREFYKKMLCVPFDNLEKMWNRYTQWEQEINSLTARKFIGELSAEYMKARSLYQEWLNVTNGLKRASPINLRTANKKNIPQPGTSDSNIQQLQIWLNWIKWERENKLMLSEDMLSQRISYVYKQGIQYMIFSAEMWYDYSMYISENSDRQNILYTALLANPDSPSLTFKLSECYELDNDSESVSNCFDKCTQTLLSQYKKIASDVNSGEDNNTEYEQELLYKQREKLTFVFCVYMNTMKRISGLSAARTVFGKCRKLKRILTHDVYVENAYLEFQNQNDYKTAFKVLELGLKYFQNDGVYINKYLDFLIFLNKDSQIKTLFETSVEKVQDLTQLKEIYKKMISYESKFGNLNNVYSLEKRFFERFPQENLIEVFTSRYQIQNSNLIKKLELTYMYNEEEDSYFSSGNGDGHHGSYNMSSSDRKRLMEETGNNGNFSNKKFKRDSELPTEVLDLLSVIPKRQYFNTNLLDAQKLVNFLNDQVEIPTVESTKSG
T1 sequence (looked up) 2: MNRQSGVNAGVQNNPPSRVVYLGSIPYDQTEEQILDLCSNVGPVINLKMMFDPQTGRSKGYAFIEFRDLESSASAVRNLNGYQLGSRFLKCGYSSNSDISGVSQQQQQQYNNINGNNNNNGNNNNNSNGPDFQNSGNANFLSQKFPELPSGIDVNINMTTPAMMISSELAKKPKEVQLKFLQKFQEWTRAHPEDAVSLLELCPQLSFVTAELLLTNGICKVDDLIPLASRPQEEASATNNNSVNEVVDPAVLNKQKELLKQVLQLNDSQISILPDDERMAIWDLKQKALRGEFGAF
Test: SEC

stoichiometry N: 1 Pcf11/Clp1 heterodimer per Rna14/Rna15 heterotetramer
B1: Pcf11/Clp1 complex (1:1 heterodimer) (complex)
chain 1: not shown
chain 2: MASLPGIDEHTTSEELITGDNEWHKLVIPKGSDWQIDLKAEGKLIVKVNSGIVEIFGTELAVDDEYTFQNWKFPIYAVEETELLWKCPDLTTNTITVKPNHTMKYIYNLHFMLEKIRMSNFEGPRVVIVGGSQTGKTSLSRTLCSYALKFNAYQPLYINLDPQQPIFTVPGCISATPISDILDAQLPTWGQSLTSGATLLHNKQPMVKNFGLERINENKDLYLECISQLGQVVGQRLHLDPQVRRSGCIVDTPSISQLDENLAELHHIIEKLNVNIMLVLCSETDPLWEKVKKTFGPELGNNNIFFIPKLDGVSAVDDVYKRSLQRTSIREYFYGSLDTALSPYAIGVDYEDLTIWKPSNVFDNEVGRVELFPVTITPSNLQHAIIAITFAERRADQATVIKSPILGFALITEVNEKRRKLRVLLPVPGRLPSKAMILTSYRYLE
